From the supplement of paper PMC11417369
The other results are listed elsewhere or left out.

Tested on: PfSIP2 AP2 domain 1 (GST-tagged)
Test: gcPBM binding intensity (ln(normalized median fluorescence intensity)); higher = stronger DNA binding
Procedure, shortened: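 After 1 h on an Agilent 4 × 180k array of primer-extended double-stranded 36-bp intergenic genomic probes and negative controls, bound GST-tagged P. falciparum DNA-binding domains were detected with Alexa488 anti-GST antibody and scanned at 488 nm. The domains had been expressed in E. coli, and binding took place in 1× PBS with 1% milk, 0.2 mg/ml BSA, 0.5% salmon testes DNA and 0.03% Triton X-100. Binding intensity is the highest Masliner-normalised natural-log median intensity across replicate spots of either probe orientation.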

Sequence | gcPBM binding intensity (ln)
CTTATATATATATCATGTACTTATGTATTTAAGAAT [XGTACX_site3307] | 7.01
ACAATAAAAATTTATGCATGTGAATTGAAAAAAAAA [TGCATGCA_site1037] | 6.84
AAATAAAACAAACACACACACACATACACAAAAAAA [CACACA_site3849] | 7.23
GTTATTGAAAAAATAGTGCAATATAACAAAGTAAAA | 8.9
TAATTTCTTATGTATTGTACAAATAATATATGATAT [XGTACX_site611] | 7.19
GGAATGTAGGGTTTTACCAAAATAAAAATAACCATA [XGTACX_negctrl_site492] | 6.84
TATATATTTCGGTGTGCACACTTTTTATTTTTATCC [CACACA_site1726] | 8.4
TATATATATATATGTACACACATATATACCTTTCAT [CACACA_site2679] | 9.51
ATAAAATACCTATAAACACACATATAAACAGACATA [CACACA_site7213] | 7.09
TAAGAAAAAAAAAAAAAAAAAAAAAAAAAAAAAAAA [CACACA_negctrl_site760] | 6.96
TAAAAATATTTTCATTGTACATATATATAAATATAT [XGTACX_site1123] | 6.97
TATAAAAAAAAAAAATATATATATATATAAATATAA [TGCATGCA_negctrl_site367] | 7.04
TCACCTATTTTTAACTGTACTGAAATGATATATATA [XGTACX_site1366] | 7.28
TAATGAAATTGTAGTAGTACCTTCTTATAAATAAAA [XGTACX_site6747] | 6.64
ATTTGTTACGGACATGCATGCGAATCAGGGTATATA [TGCATGCA_site154] | 7.13
TTGAGGAAATAACAGTGTACAAACAAATTATTACCA [XGTACX_site7082] | 6.85
TACATATATATATATATATATATATATATCATTATG [XGTACX_negctrl_site293] | 7.75
ATGGTACATACATACACACACACAAAAAAAAAAAAA [CACACA_site1578] | 7
GTTCAATTTTTAGGAAGTACAAAAAAAAAAAAGAAA [XGTACX_site7286] | 7.11

Sequence | gcPBM binding intensity (ln)
CAAACCTATATACAAACATGCAATCCACATATTGGT [TGCATGCA_site756] | 6.96
TATATTTGTATTGTTTGTACTTATATGAATTTATAT [XGTACX_site4228] | 7.08
TATATTAGTGTTGACACACACAAAAAAAAAAAAAAA [CACACA_site1396] | 7.12
TTTATTGACAATTTATGTACATATAATTGAAAAATA [XGTACX_site6634] | 7.22
TTTGTGATATTATATTGTACCCTATATTTATTATAA [XGTACX_site4240] | 7.16
GAATGGACGTTAGGGGGTACGTATAAAATTTATCAA [XGTACX_site683] | 7.8
AAATAATGTTTGAATTGTACACATATTTGTGTTTCT [XGTACX_site4603] | 7.06
GTGGAACGTATATTTTCACACACTCTCAAAAGTACA [CACACA_site8722] | 6.83
ATGTTGCACAGTGGAAGAATTAAAAATAAATAAATA [XGTACX_negctrl_site581] | 8.19
GTGGAACATATGAACTCACACACATTTTCACTTAAA [CACACA_site3683] | 6.82
AATATTATAAATGTCACACATATATTCAAATATATA [CACACA_site4736] | 6.83
AATTTTTGTATTTTTAGTACTTAATTTCAAAATAAC [XGTACX_site4234] | 6.99
ATGAACATATCAATTCTCAAAATAGGATGAGAGCAT [CACACA_negctrl_site230] | 6.88
TTTGTATATTATTTTAGTACATAACATTGAAGATAT [XGTACX_site6680] | 7.15
ATATAAGGATTAATATGTACATATATATATATATTT [XGTACX_site1390] | 7.2
TATTTTGAAACTAAAAGACATAGAGAAAACAAAAAA [CACACA_negctrl_site1306] | 7.04
GACATTGATACCAGTAGTACCTATAGATGTTTGTTT [XGTACX_site5736] | 6.95
TTATGGAATAATCACGTACACACAAGAAAAAAAAAA [CACACA_site526] | 7.36
TTATAGAAAATGGAATAGAATGGAATGGAAGAAATA [CACACA_negctrl_site1086] | 7.01

Sequence | gcPBM binding intensity (ln)
ATTATATATAAGAAGAGTACTGAATATGTGCAATAT [XGTACX_site4471] | 7.43
TATATACACCCACATACACACAAATAAAAAAACACC [CACACA_site3414] | 8.14
GTATATAAATATATATATATATATATATCTATATTT [CACACA_negctrl_site871] | 7.42
GTATTTTTACAAATTTGTACATATATATGAATATAC [XGTACX_site6717] | 7.41
AAAGAAAAATTAACATGTACAAAAATTACTTGTTCA [XGTACX_site6725] | 6.49
AAAAAAAATTCACACTGTACAAAAGCATAAATAAAC [XGTACX_site5408] | 7.31
TCTGAAACAAGAAAAAGTACACAAATTACAAAACTA [XGTACX_site7641] | 7.24
ATATTTACCTTTGTATGTACATATATAAAATATATC [XGTACX_site6367] | 7.21
TTTTGTAAAAAGAAAAATTAGAATATATCGTATATA [XGTACX_negctrl_site617] | 6.7
TAATAAATACAAAAATGTACACACATATATATATTT [XGTACX_site7430] | 7.09
TTATTTATTTATTCATGTACGTGTATTTTTTAAAAA [XGTACX_site7915] | 7.28
TATATATATATTATCACACACTCACGTTTGACAAAA [CACACA_site689] | 8.54
ATTGGGTACAAATACACACACATATATATATTAAGA [CACACA_site5330] | 6.89
AGTGTCATATTAACACGTACATAATTATTGTAGAGA [XGTACX_site568] | 7.14
TATTACATACAATATTGTACATATCATATTTTGAAT [XGTACX_site2191] | 6.97
ACGGAAAAAGAAAAGGTGCATATGGACACAATATAT | 11.3
ATAGAAATATTATATTGTACGAACAGTTATTAACAA [XGTACX_site2137] | 7.12
ATTATTTGTTTAAATTCACACACGTATATATATTTA [CACACA_site3050] | 7.15
